The target in experiment [1] is T1, ecMenE R195K (Escherichia coli, UniProt P37353, R195K). In kind it is biochemical.
Experiment [2] concerns the target T1, ecMenE R195K. Particulars: ITC.
Experiment [3] has as its target ecMenE R195Q (Escherichia coli, UniProt P37353, R195Q). The note with it: ITC.

Regarding `O=C(O)CCC(=O)c1ccccc1C(=O)O` [OSB, o-succinylbenzoate], the kcat in experiment [1] (R195K ecMenE, substrate OSB) was determined as 0.783 ± 0.0055 s⁻¹. In addition, in experiment [1] (R195K vs wild-type ecMenE), the “decrease in kcat/KM compared to wild-type” value is listed as 15 fold and the “increase in KM for OSB” value is reported as 16 fold. The Km in experiment [1] (read-out: KM OSB, R195K ecMenE, pH 7.4, 25°C) came out at 16 ± 1.4 µM.
For `Nc1ncnc2c1ncn2[C@@H]1O[C@H](COS(=O)(=O)NC(=O)CCC(=O)c2ccccc2C(=O)O)[C@@H](O)[C@H]1O` [compound 1, OSB-AMS], the values for the ΔG in experiment [2] (R195K ecMenE) and in experiment [3] (R195Q ecMenE) were -8.8 kcal/mol and -7.3 kcal/mol, respectively. For the same molecule, the ΔH in experiment [2] (R195K ecMenE) was -2.5 ± 0.20 kcal/mol; in experiment [3] (R195Q ecMenE), -3.1 ± 0.10 kcal/mol. Moreover, the “decrease in binding affinity (increase in Kd) relative to wild-type” value worked out at 9 fold in experiment [2] (R195K vs wt ecMenE) and 102 fold in experiment [3] (R195Q vs wt ecMenE). Moreover, the results for the ΔΔG in experiment [2] (R195K vs wt ecMenE) and in experiment [3] (R195Q vs wt ecMenE) were 1.2 kcal/mol and 2.7 kcal/mol, respectively. Also, the Kd in experiment [2] (read-out: Kd OSB-AMS, R195K ecMenE) stood at 394 ± 36 nM; in experiment [3] (read-out: Kd OSB-AMS, R195Q ecMenE) it was 4500 ± 112 nM.

The values are drawn from publication PMC4624480 (Biochemistry, 2015).
